Assay results reported in the supplement of paper PMC11417369.
The other results are listed elsewhere or left out.

These sequences were tested on PfAP2-HC AP2 domain (GST-tagged) (assay: gcPBM binding intensity (ln(normalized median fluorescence intensity)); higher = stronger DNA binding).
Method in brief: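 Alexa488 anti-GST antibody, scanned at 488 nm, detected GST-tagged P. falciparum DNA-binding domains that had been expressed in E. coli and incubated for 1 h on an Agilent 4 × 180k array. The array carried primer-extended double-stranded 36-bp intergenic genomic probes and negative controls. Binding intensity is the highest Masliner-normalised natural-log median intensity across replicate spots of either orientation of each probe.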

| Sequence | gcPBM binding intensity (ln) |
| --- | --- |
| AAAAAGAAAAAACTTACACACATATATACACCCATG [CACACA_site8079] | 11.3 |
| TATAAATAATTATATTGTACTCTTTATATTTTTCTT [XGTACX_site5335] | 9.7 |
| AGAAGTTTATCTTTTAGTACGCATAAAAAAAAAAAA [XGTACX_site2359] | 9.39 |
| TAAATATATATATGGTGTACCATTTTGGGTTAATAT [XGTACX_site2706] | 9.54 |
| GGGAGGATATTTCACAGTACCCAGGAAATCTGCGGA [XGTACX_site2555] | 9.2 |
| TTAATATTTTGATGTGTACACATTAAAATAGTTTTA [CACACA_site5712] | 9.5 |
| TATATTATTTTTTATTGTACTTAAAAATATTATTTG [XGTACX_site1443] | 9.55 |
| TTAAATAGCTGTAATTGTACAAATAAATACATAAAT [XGTACX_site3097] | 9.72 |
| TATAGTAATATTTGAAGTACAAAATTAAAATAAATA [XGTACX_site7634] | 9.87 |
| TTATATAAGGTCTATATATAAATATTAATGATAAGG [TGCATGCA_negctrl_site354] | 9.54 |
| TTTTTTTTGTTATGAACATGCAAATTAAAATATAAT [TGCATGCA_site954] | 9.4 |
| TACTTTTCTTAAAGATGTACGTTTTAAAAATAAAAT [XGTACX_site14] | 9.33 |
| CAACAATTTCGTCATACACACATTCAGAATATATAT [CACACA_site2370] | 9.81 |
| TAAATACATAAAAATTGTACACATTGTTTTCTCTTT [XGTACX_site6435] | 9.7 |
| TCCTTATTTTGCAGGAGTACCATTTTTTAAAAATAC [XGTACX_site5968] | 9.46 |
| ACAATTACTTATTTTAATTTTTTTAATCTATTGATT [CACACA_negctrl_site967] | 9.57 |
| AATAACAATTATAAAAGTACAGATTTTTATTTCTAA [XGTACX_site5746] | 9.4 |
| ATATTTTTTTTTCTTTCGCACACGTGAAAGAATTTC [CACACA_site8636] | 9.9 |
| TTTTATGCTCAATTATTAAGAAATACTTTTTCTTCC [XGTACX_negctrl_site208] | 9.44 |
| AAAATAAAAATTAACTGTACATACATTATTCAAATT [XGTACX_site6106] | 9.65 |
| AAGGAAATAATTAAATGTACAAAAAAAAAAAAAATT [XGTACX_site562] | 9.73 |
| TACAAACAAACACATAGCAATATATGTTATCAAAAA [XGTACX_negctrl_site1] | 9.81 |
| GATATAATTATATTATGGTGTTTTTGATAGATATTT [GTGCAC_negctrl_site313] | 9.61 |
| AGTATATACACGTGCGTGCACAGATATTCTTTTTTT [GTGCAC_site9398] | 9.71 |
